Measured values published in patent US20150010574A1.

Target: IGF bioactivity in human serum pooled from healthy donors (20%)
Assay: cell-based or functional assay

- % Remaining Phosphorylation at 15 µg/mL (100 nM) Inhibitor; human serum (20%) induced IGF-1R phosphorylation: 5%
- IC50 of human serum (20%) induced IGF-1R phosphorylation, cell based ELISA: 0.25 µg/mL
B1: antibody 60833 (antibody, human IgG1, lambda)
heavy: QVELVESGGGLVQPGGSLRLSCAASGFTFTSYWMSWVRQAPGKGLELVSSITSYGSFTYYADSVKGRFTISRDNSKNTLYLQMNSLRAEDTAVYYCARNMYTHFDSWGQGTLVTVSS[human IgG1 constant region left out here]
light: DIVLTQPPSVSGAPGQRVTISCSGSSSNIGSNSVSWYQQLPGTAPKLLIYDNSKRPSGVPDRFSGSKSGTSASLAITGLQSEDEADYYCQSRDTYGYYWVFGGGTKLTVLGQPKAAPSVTLFPPSSEELQANKATLVCLISDFYPGAVTVAWKGDSSPVKAGVETTTPSKQSNNKYAASSYLSLTPEQWKSHRSYSCQVTHEGSTVEKTVAPTECS
